Several values for one entry are separate records, joined by “and”; a condition that tells them apart may be missing. Equal values may be shown once. Where a name gives a salt, the structure may show the parent alone. ± gives the standard deviation of the averaged measurements. In all, about 3,100 compounds were measured (“mean cytoplasmic OPP incorporation (global translation) relative to DMSO”: median about 100, lowest 2% from about 56 on). This is one part of the list.
tested on: U2OS; assay: mean cytoplasmic OPP incorporation (global translation) relative to DMSO (% of DMSO); higher = more protein synthesis; details: 10 µM; 24 h
Experimental: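 Primary image-based screen in U2OS cells: compounds at 10 uM for 24 h, then a 1 h o-propargyl-puromycin (OPP) pulse, click labelling, and high-throughput microscopy. Mean cytoplasmic OPP intensity and nuclei count were normalised to DMSO wells within each plate (DMSO = 100) and averaged over triplicate plates.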

SMILES | mean cytoplasmic OPP incorporation
C[N+]12CCC(CC1)C(OC(=O)C(O)(c1ccccc1)c1ccccc1)C2 (centres undefined) [Clidinium bromide] | 105
C[C@@]12N[C@@H](Cc3ccccc31)c1ccccc12 [(-)-MK 801 maleate] | 108
C[C@@]12N[C@@H](Cc3ccccc31)c1ccccc12 [(-)-MK 801 hydrogen maleate] | 99
O=C1C(=O)c2ccccc2-c2ccccc21 [9,10-Phenanthrenequinone] | 87.7
CC(=O)OCC1=C(C(=O)O)N2C(=O)[C@@H](N)[C@H]2SC1 [7-Aminocephalosporanic acid] | 102
CC(=O)OCC1=C(C(=O)O)N2C(=O)[C@@H](N)[C@H]2SC1 [Cephalosporanic acid, 7-amino] | 106
CO[C@]12C[C@@H](COC(=O)c3cncc(Br)c3)CN(C)[C@@H]1Cc1cn(C)c3cccc2c13 [Nicergoline] | 103 ± 3.5
Cc1cccc([C@H](C)c2c[nH]cn2)c1C [Dexmedetomidine HCl (Precedex)] | 93.7
CC1(C(=O)O)C2CCC(O2)C1(C)C(=O)O (centres undefined) [Cantharidic acid] | 110
CCCN(CCC)[C@@H]1CCc2c(OC)cccc2[C@@H]1C [(+)-UH 232 maleate] | 102
CC(C)(C)NCC(O)c1ccccc1Cl (centres undefined) [Tulobuterol] | 99.8
C[C@]12Cc3c[nH]nc3C[C@@H]1CC[C@@H]1[C@@H]2CC[C@@]2(C)[C@H]1CC[C@]2(C)O [Stanozolol] | 99
Cc1nnc2ccc(-c3cccc(C(F)(F)F)c3)nn12 | 95.7
C#C[C@]1(O)C=C[C@H]2[C@@H]3CCC4=CC(=O)CC[C@@H]4[C@H]3CC[C@@]21CC [Gestodene] | 92.9
CCNC1(c2cccs2)CCCCC1=O (centres undefined) [Tiletamine hydrochloride] | 102
C[C@@H]1CC[C@H]2[C@@H](C)C(=O)O[C@@H]3O[C@@]4(C)CC[C@@H]1[C@]32OO4 [Artemisinin] | 92.8 ± 2.5
CCC1(c2cccc(O)c2)CCCCN(C)C1 (centres undefined) [Meptazinol hydrochloride] | 116
O=C1Nc2cc(Cl)c(Cl)cc2N2CCNCC12 (centres undefined) | 104
COc1ccc(C(=O)O[C@H]2CC[C@@]3(C)[C@@H]4CC[C@H]5[C@]6(O)C[C@H](O)[C@@]7(O)[C@@H](CN8C[C@@H](C)CC[C@H]8[C@@]7(C)O)[C@]6(O)C[C@@]53O[C@]24O)cc1OC [Veratridine] | 108
CC(C)(C)NCC(O)COc1cccc2[nH]c(C#N)cc12 (centres undefined) [Cyanopindolol hemifumarate] | 105
COc1cc([C@@H]2c3cc4c(cc3[C@H](O)[C@H]3COC(=O)[C@H]23)OCO4)cc(OC)c1OC [Podophyllotoxin] | 84.1
NCCc1c[nH]c2ccc(O)cc12 [Serotonin] | 96.8
NCCc1c[nH]c2ccc(O)cc12 [Serotonin hydrochloride] | 101
CCN(C(C)=O)c1cccc(-c2ccnc3c(C#N)cnn23)c1 [Zaleplon] | 88.4
CCC(COC(=O)c1cc(OC)c(OC)c(OC)c1)(c1ccccc1)N(C)C (centres undefined) [Trimebutine] | 105

SMILES | mean cytoplasmic OPP incorporation
C/C=C(\C)C(=O)N[C@@H](c1ccccc1)[C@@H](O)C(=O)O[C@H]1C[C@@]2(O)[C@@H](OC(=O)c3ccccc3)[C@@H]3[C@]4(OC(C)=O)CO[C@@H]4C[C@H](O)[C@@]3(C)C(=O)[C@H](OC(C)=O)C(=C1C)C2(C)C [Cephalomannine] | 108
COc1ccc(C[C@H]2NC[C@H](O)[C@H]2OC(C)=O)cc1 [Anisomycin] | 78.2 ± 59
Cc1[nH]c2ccc(Cl)cc2c1C1=CCNCC1 | 97.5
Cc1cc(SCc2sc(-c3ccc(C(F)(F)F)c(F)c3)nc2C)ccc1OCC(=O)O | 101
NC(=O)C[S+]([O-])C(c1ccccc1)c1ccccc1 (centres undefined) [Modafinil] | 97.3
CC(C)(C)[C@]1(O)CC2OC(=O)CC23C(=O)OC2OC(=O)[C@H](O)C231 (some centres undefined) [Bilobalide] | 108
CC[C@@H]1/C=C/C=C/C[C@H](C)[C@H](O)[C@](C)(O)C(=O)[C@H](C)[C@@H](O)[C@H](C)C(=O)[C@H](C)[C@@H](O)[C@H](C)/C=C/C(=O)O[C@H]2[C@@H](C)[C@@H](CC1)O[C@@]1(CC[C@@H](C)[C@@H](C[C@H](C)O)O1)[C@@H]2C [Oligomycin A] | 109
CN1CCN(C(=O)OC2c3nccnc3C(=O)N2c2ccc(Cl)cn2)CC1 (centres undefined) [Zopiclone] | 96.6
CN[C@@H]1C[C@H]2O[C@@](C)([C@@H]1OC)n1c3ccccc3c3c4c(c5c6ccccc6n2c5c31)C(=O)NC4 [Staurosporine] | 123
Clc1ccc(C(OCCN2CCCCC2)c2ccccc2)cc1 (centres undefined) [Cloperastine hydrochloride] | 111
O=C(O[C@H]1C[N+]2(CCCOc3ccccc3)CCC1CC2)C(O)(c1cccs1)c1cccs1 [Aclidinium Bromide] | 97.3
Clc1ccccc1C(c1ccccc1)(c1ccccc1)n1cccn1 | 105
CC(=O)NC1CCSC1=O (racemic) [N-Acetyl-DL-homocysteine Thiolactone] | 103
CC(Cc1ccccc1)NCCC(c1ccccc1)c1ccccc1 (centres undefined) [Prenylamine lactate] | 107
C[C@]12CC[C@H](O)C[C@H]1CC[C@@H]1[C@@H]2C[C@@H](O)[C@]2(C)[C@@H](C3=CC(=O)OC3)CC[C@]12O [Digoxigenin] | 32
Cc1cccc(C)c1NC1=NCCCS1 [Xylazine] | 102
COc1cc2c(cc1OC)C1CC(=O)C(CC(C)C)CN1CC2 (centres undefined) [Tetrabenazine] | 102
CCCCC/C=C\C/C=C\C/C=C\C/C=C\CCCC(=O)Nc1ccc(O)cc1 | 107
CCNC(=O)[C@H]1O[C@@H](n2cnc3c(N)ncnc32)[C@H](O)[C@@H]1O | 100
C[C@H](N)Cn1ccc2cc(F)c(Cl)cc21 [Ro 60-0175 fumarate] | 94.4
O=C(Oc1ccc([N+](=O)[O-])cc1)N1CCC(C(O)(c2ccc3c(c2)OCO3)c2ccc3c(c2)OCO3)CC1 | 105
CN1C(=O)COc2c(C(=O)NC3CN4CCC3CC4)cc(Cl)cc21 (centres undefined) | 99.2
NC(=O)CN1CCCC1=O [Piracetam] | 103
COc1cc2c(cc1OC)C(C)NCC2 (centres undefined) | 98.9
NCc1cc(O)no1 [Muscimol] | 98.6

SMILES | mean cytoplasmic OPP incorporation
Oc1ccc2c3c1O[C@H]1c4oc5ccccc5c4C[C@@]4(O)[C@@H](C2)N(CC2CC2)CC[C@]314 [Naltriben mesylate] | 107
O=P1(NCCCl)OCCCN1CCCl (centres undefined) [Ifosfamide] | 105
COc1ccc(C(=O)c2c(C)n(CCN3CCOCC3)c3cc(I)ccc23)cc1 | 105
CCCCC/C=C\C/C=C\C/C=C\C/C=C\CCCC(=O)NCCO [Anandamide] | 97.9
CC(C)c1c(CN(C)C(C)Cc2ccccc2)n(C)n(-c2ccccc2)c1=O (centres undefined) [Famprofazone] | 104
C=C(C)[C@@H]1[C@H]2OC(=O)[C@@H]1[C@]1(O)C[C@H]3O[C@]34C(=O)O[C@H]2[C@]14C [Picrotoxinin] | 104
CC(=O)OCC(=O)[C@H]1CC[C@H]2[C@@H]3CC[C@H]4C[C@H](O)CC[C@]4(C)[C@H]3C(=O)C[C@]12C [Alfadolone acetate] | 107
N#CC(C#N)=Cc1ccc(O)cc1 [Tyrphostin 8] | 98.5
CC(C)(Cc1c[nH]c2ccc(Cl)cc12)NCCOc1ccccc1OCC1CC1 | 55.1
Cc1ccc(C[N+](C)(C)C)o1 [5-Methylfurmethiodide] | 94.1
CCCN(CCC)C1CCc2cccc(O)c2C1 (centres undefined) [8-Hydroxy-DPAT hydrobromide] | 104
c1ccc2c(c1)[I+]c1ccccc1-2 [Diphenyleneiodonium chloride] | 74
CNc1ccc2oc(C[C@H]3O[C@@]4(CC[C@H]3C)O[C@H]([C@H](C)C(=O)c3ccc[nH]3)[C@H](C)C[C@H]4C)nc2c1C(=O)O | 98.9 and 94.4
O=C(O)c1ccc2[nH]cc(CCCCN3CC=C(c4ccccc4)CC3)c2c1 [Carmoxirole hydrochloride] | 104
CCN1C[C@]2(COC(=O)c3ccccc3N3C(=O)C[C@H](C)C3=O)CC[C@H](OC)[C@@]34[C@@H]5C[C@H]6[C@H](OC)[C@@H]5[C@](O)(C[C@@H]6OC)[C@](O)([C@@H](OC)[C@H]23)[C@@H]14 [Methyllycaconitine citrate] | 102
CCN1C[C@]2(COC)[C@H](O)C[C@H](OC)[C@@]34[C@@H]5C[C@@]6(O)[C@H](OC(=O)c7ccccc7)[C@@H]5[C@@](OC(C)=O)([C@@H]([C@H](OC)[C@H]23)[C@@H]14)[C@@H](O)[C@@H]6OC [Aconitine] | 102
CN(C)C(=O)Oc1cc(OC(=O)N(C)C)cc(C(O)CNC(C)(C)C)c1 (centres undefined) [Bambuterol hydrochloride] | 105
C[N+]1(C)[C@@H]2C[C@@H](OC(=O)[C@H](CO)c3ccccc3)C[C@H]1[C@@H]1O[C@@H]12 [Methscopolamine (Pamine)] | 99.5
C[C@]12CC[C@H](O)C[C@@H]1CC[C@@H]1[C@@H]2CC[C@]2(C)C(=O)CC[C@@H]12 | 95.2
C[C@]12CC[C@H](O)C[C@@H]1CC[C@@H]1[C@@H]2CC[C@]2(C)C(=O)CC[C@@H]12 [Epiandrosterone] | 90.1
Cn1cc(C(=O)C(=O)N[C@H]2CN3CCC2CC3)c2ccccc21 | 99.4
CCn1cc(C(=O)O)c(=O)c2cc3c(cc21)OCO3 [Oxolinic acid] | 95.6
N[C@@]1(C(=O)O)CC[C@@H](C(=O)O)C1 | 98.4
C=C(C)[C@H]1O[C@H]2CC[C@@]3(C)[C@@](O)(CC[C@H]4[C@@H]5OC(C)(C)[C@H]6C[C@@H]7C(=C)Cc8c(Cl)cc9[nH]c(c5c9c8[C@@]76O)[C@@]43C)[C@@]23O[C@H]3[C@H]1O [Penitrem A] | 97.4 ± 4

— the supplement of paper PMC8183993
